25 test systems from the supplement of paper PMC6657886 can be followed below.

MIC of clinical N. gonorrhoeae isolates (2015-2017) by agar dilution on GC agar with 1% IsoVitaleX (ranges not stated); higher = less susceptible. No active / inactive call per row; the paper counts benzylpenicillin above 1 and ceftriaxone above 0.125 mg/L as resistant (EUCAST). The method is stated for benzylpenicillin and ceftriaxone and assumed for the other drugs. '<=' is inferred from pile-ups at the end values. Isolates are numbered anew. Bounds are passed on as bounds.

The term MIC denotes the lowest concentration that inhibits growth of the organism.

Test in all cases: Agar dilution on enriched GC agar; resistance determinants by microarray.
(Agar dilution tests growth on a series of plates holding different concentrations.)

Compound in one assay: CC[C@H]1OC(=O)[C@H](C)[C@@H](O[C@H]2C[C@@](C)(OC)[C@@H](O)[C@H](C)O2)[C@H](C)[C@@H](O[C@@H]2O[C@H](C)C[C@H](N(C)C)[C@H]2O)[C@](C)(O)C[C@@H](C)CN(C)[C@H](C)[C@@H](O)[C@]1(C)O [azithromycin]
Compound in another assay: CN[C@@H]1[C@H](O)[C@H](NC)[C@H]2O[C@@]3(O)C(=O)C[C@@H](C)O[C@H]3O[C@@H]2[C@H]1O [spectinomycin]
Compound in a further assay: CC1(C)S[C@@H]2[C@H](NC(=O)Cc3ccccc3)C(=O)N2[C@H]1C(=O)O [benzylpenicillin]
Compound in another assay: CN(C)[C@@H]1C(O)=C(C(N)=O)C(=O)[C@@]2(O)C(O)=C3C(=O)c4c(O)cccc4[C@@](C)(O)[C@H]3C[C@@H]12 [tetracycline]
Compound in another assay: CO/N=C(\C(=O)N[C@@H]1C(=O)N2C(C(=O)O)=C(CSc3nc(=O)c(O)nn3C)CS[C@H]12)c1csc(N)n1 [ceftriaxone]

As to “Neisseria gonorrhoeae isolate 416 (blaTEM plasmid: no, gyrA: Thr91, Gly95, mtrR promoter: wild type, parC: wild type, penA: ins345Asp, ponA: wild type, porB: wild type, rpsJ: wild type, tetM plasmid: no)”, the MIC with azithromycin turned out to be 0.03 mg/L; in the assay with spectinomycin it was 32 mg/L; with benzylpenicillin, 0.5 mg/L; with tetracycline it was 0.06 mg/L; with ceftriaxone, 15 ng/mL.
As to “Neisseria gonorrhoeae isolate 11 (blaTEM plasmid: no, gyrA: wild type, mtrR promoter: wild type, parC: wild type, penA: wild type, ponA: wild type, porB: wild type, rpsJ: wild type, tetM plasmid: no)”, the MIC was 0.12 mg/L with azithromycin; 32 mg/L with spectinomycin; at most 0.015 mg/L in the assay with benzylpenicillin; 0.25 mg/L with tetracycline; at most 2 ng/mL with ceftriaxone.
For “Neisseria gonorrhoeae isolate 352 (blaTEM plasmid: no, gyrA: Phe91, Asn95, mtrR promoter: -35delA, parC: wild type, penA: wild type, ponA: Pro421, porB: Asn120, Asp121, rpsJ: Met57, tetM plasmid: no)”, the MIC in the assay with azithromycin was found to be 0.25 mg/L; with spectinomycin, 16 mg/L; in the assay with benzylpenicillin it was 1 mg/L; in the assay with tetracycline, 1 mg/L; with ceftriaxone it was 15 ng/mL.
“Neisseria gonorrhoeae isolate 199 (blaTEM plasmid: no, gyrA: Phe91, Asn95, mtrR promoter: wild type, parC: wild type, penA: ins345Asp, ponA: Pro421, porB: Asn120, Asp121, rpsJ: wild type, tetM plasmid: no)”: the MIC with azithromycin worked out at 0.5 mg/L; with spectinomycin it was 16 mg/L; with benzylpenicillin it was 0.5 mg/L; with tetracycline, 2 mg/L; with ceftriaxone, 15 ng/mL.
“Neisseria gonorrhoeae isolate 168 (blaTEM plasmid: no, gyrA: Phe91, Asp95, mtrR promoter: wild type, parC: wild type, penA: ins345Asp, ponA: Pro421, porB: wild type, rpsJ: Met57, tetM plasmid: no)”: the MIC is 0.03 mg/L with azithromycin; 8 mg/L in the assay with spectinomycin; at most 0.015 mg/L with benzylpenicillin; 0.25 mg/L with tetracycline; at most 2 ng/mL with ceftriaxone.
For “Neisseria gonorrhoeae isolate 149 (blaTEM plasmid: no, gyrA: wild type, mtrR promoter: wild type, parC: wild type, penA: ins345Asp, ponA: wild type, porB: wild type, rpsJ: wild type, tetM plasmid: no)” the same measures were 0.03 mg/L, 32 mg/L, 0.06 mg/L, 0.25 mg/L and at most 2 ng/mL.
As for “Neisseria gonorrhoeae isolate 141 (blaTEM plasmid: no, gyrA: wild type, mtrR promoter: wild type, parC: wild type, penA: ins345Asp, ponA: wild type, porB: wild type, rpsJ: wild type, tetM plasmid: no)”, the MIC with azithromycin was 0.06 mg/L; with spectinomycin it was 16 mg/L; with benzylpenicillin, 0.06 mg/L; with tetracycline it was 0.12 mg/L; with ceftriaxone, at most 2 ng/mL.
As for “Neisseria gonorrhoeae isolate 327 (blaTEM plasmid: no, gyrA: Phe91, Asn 95, mtrR promoter: -35delA, parC: Ser87, Gly91, penA: ins345Asp, ponA: Pro421, porB: Asn120, Asp121, rpsJ: Met57, tetM plasmid: no)”, the MIC was 0.12 mg/L with azithromycin; 32 mg/L in the assay with spectinomycin; 0.5 mg/L in the assay with benzylpenicillin; 2 mg/L with tetracycline; 15 ng/mL in the assay with ceftriaxone.
For “Neisseria gonorrhoeae isolate 386 (blaTEM plasmid: no, gyrA: wild type, mtrR promoter: wild type, parC: wild type, penA: ins345Asp, ponA: wild type, porB: wild type, rpsJ: wild type, tetM plasmid: no)” the same measures were 0.002 mg/L, 16 mg/L, 0.06 mg/L, 0.12 mg/L and at most 2 ng/mL.
“Neisseria gonorrhoeae isolate 2 (blaTEM plasmid: yes, gyrA: Phe91, Ala 95, mtrR promoter: wild type, parC: Asn 87, Lys91, penA: ins345Asp, ponA: Pro421, porB: Asp120, Ala121, rpsJ: wild type, tetM plasmid: yes)”: the MIC in the assay with azithromycin amounted to 0.06 mg/L; in the assay with spectinomycin it was 16 mg/L; with benzylpenicillin it was 16 mg/L; in the assay with tetracycline, 32 mg/L; in the assay with ceftriaxone, 15 ng/mL.
For “Neisseria gonorrhoeae isolate 305 (blaTEM plasmid: no, gyrA: wild type, mtrR promoter: wild type, parC: wild type, penA: ins345Asp, ponA: wild type, porB: wild type, rpsJ: wild type, tetM plasmid: no)”, the MIC was 0.12 mg/L with azithromycin; 16 mg/L in the assay with spectinomycin; 0.12 mg/L with benzylpenicillin; 0.5 mg/L with tetracycline; 8 ng/mL in the assay with ceftriaxone.
Consider “Neisseria gonorrhoeae isolate 73 (blaTEM plasmid: no, gyrA: wild type, mtrR promoter: wild type, parC: wild type, penA: ins345Asp, ponA: wild type, porB: wild type, rpsJ: wild type, tetM plasmid: no)”, for which the MIC with azithromycin is 0.06 mg/L; with spectinomycin, 16 mg/L; in the assay with benzylpenicillin, 0.06 mg/L; with tetracycline, 0.25 mg/L; with ceftriaxone, at most 2 ng/mL.
With “Neisseria gonorrhoeae isolate 282 (blaTEM plasmid: no, gyrA: wild type, mtrR promoter: wild type, parC: wild type, penA: ins345Asp, ponA: Pro421, porB: wild type, rpsJ: Met57, tetM plasmid: no)”, the MIC with azithromycin was 0.06 mg/L; with spectinomycin, 16 mg/L; with benzylpenicillin, 0.03 mg/L; in the assay with tetracycline, 0.5 mg/L; with ceftriaxone it was at most 2 ng/mL.
For the test system “Neisseria gonorrhoeae isolate 376 (blaTEM plasmid: no, gyrA: wild type, mtrR promoter: wild type, parC: wild type, penA: wild type, ponA: wild type, porB: wild type, rpsJ: wild type, tetM plasmid: no)”, the MIC was 0.03 mg/L in the assay with azithromycin; 32 mg/L with spectinomycin; at most 0.015 mg/L in the assay with benzylpenicillin; 0.25 mg/L in the assay with tetracycline; at most 2 ng/mL with ceftriaxone.
For “Neisseria gonorrhoeae isolate 167 (blaTEM plasmid: no, gyrA: Thr 91, Asp95, mtrR promoter: wild type, parC: wild type, penA: ins345Asp, ponA: wild type, porB: Gly120, Asp121, rpsJ: wild type, tetM plasmid: no)” the same measures were 0.25 mg/L, 32 mg/L, 0.12 mg/L, 0.5 mg/L and at most 2 ng/mL.
In the same order, the values of “Neisseria gonorrhoeae isolate 193 (blaTEM plasmid: no, gyrA: wild type, mtrR promoter: wild type, parC: wild type, penA: wild type, ponA: wild type, porB: wild type, rpsJ: wild type, tetM plasmid: no)” are 0.06 mg/L, 32 mg/L, 0.03 mg/L, 0.25 mg/L and at most 2 ng/mL.
For “Neisseria gonorrhoeae isolate 308 (blaTEM plasmid: no, gyrA: wild type, mtrR promoter: -35delA, parC: wild type, penA: ins345Asp, ponA: Pro421, porB: wild type, rpsJ: Met57, tetM plasmid: no)” the same measures were 0.12 mg/L, 16 mg/L, 0.03 mg/L, 0.5 mg/L and at most 2 ng/mL.
As to “Neisseria gonorrhoeae isolate 41 (blaTEM plasmid: no, gyrA: wild type, mtrR promoter: -35delA, parC: wild type, penA: ins345Asp, ponA: wild type, porB: Lys 120, Asp121, rpsJ: Met57, tetM plasmid: no)”, the MIC turned out to be 0.03 mg/L in the assay with azithromycin; 32 mg/L with spectinomycin; 0.5 mg/L with benzylpenicillin; 2 mg/L with tetracycline; 15 ng/mL with ceftriaxone.
For “Neisseria gonorrhoeae isolate 348 (blaTEM plasmid: no, gyrA: wild type, mtrR promoter: wild type, parC: wild type, penA: wild type, ponA: wild type, porB: wild type, rpsJ: wild type, tetM plasmid: no)” the same measures were 0.25 mg/L, 32 mg/L, at most 0.015 mg/L, 0.25 mg/L and at most 2 ng/mL.
As for “Neisseria gonorrhoeae isolate 414 (blaTEM plasmid: no, gyrA: Thr91, Gly95, mtrR promoter: wild type, parC: wild type, penA: wild type, ponA: wild type, porB: wild type, rpsJ: wild type, tetM plasmid: yes)”, the MIC was 0.06 mg/L with azithromycin; 16 mg/L in the assay with spectinomycin; 0.06 mg/L with benzylpenicillin; 8 mg/L with tetracycline; at most 2 ng/mL in the assay with ceftriaxone.
For the test system “Neisseria gonorrhoeae isolate 159 (blaTEM plasmid: yes, gyrA: Phe91, Asp95, mtrR promoter: wild type, parC: Asn 87, Glu91, penA: ins345Asp, ponA: Pro421, porB: Lys 120, Gly121, rpsJ: Met57, tetM plasmid: no)”, the MIC is 0.03 mg/L with azithromycin; 8 mg/L in the assay with spectinomycin; 8 mg/L with benzylpenicillin; 0.25 mg/L in the assay with tetracycline; at most 2 ng/mL with ceftriaxone.
Regarding “Neisseria gonorrhoeae isolate 172 (blaTEM plasmid: no, gyrA: Phe91, Asn95, mtrR promoter: -35delA, parC: Arg87, Glu91, penA: ins345Asp, ponA: Pro421, porB: Asn120, Asp121, rpsJ: Met57, tetM plasmid: no)”, the minimum inhibitory concentration (MIC) stood at 0.25 mg/L with azithromycin; 16 mg/L with spectinomycin; 0.5 mg/L with benzylpenicillin; 2 mg/L with tetracycline; 15 ng/mL in the assay with ceftriaxone.
For “Neisseria gonorrhoeae isolate 58 (blaTEM plasmid: no, gyrA: wild type, mtrR promoter: wild type, parC: wild type, penA: ins345Asp, ponA: wild type, porB: wild type, rpsJ: wild type, tetM plasmid: no)” the same measures were 0.5 mg/L, 32 mg/L, at most 0.015 mg/L, 0.12 mg/L and 8 ng/mL.
In the same order, the values of “Neisseria gonorrhoeae isolate 316 (blaTEM plasmid: no, gyrA: wild type, mtrR promoter: wild type, parC: wild type, penA: ins345Asp, ponA: wild type, porB: wild type, rpsJ: Met57, tetM plasmid: no)” are 0.25 mg/L, 16 mg/L, at most 0.015 mg/L, 0.25 mg/L and at most 2 ng/mL.
In the same order, the values of “Neisseria gonorrhoeae isolate 281 (blaTEM plasmid: no, gyrA: wild type, mtrR promoter: wild type, parC: wild type, penA: ins345Asp, ponA: Pro421, porB: wild type, rpsJ: wild type, tetM plasmid: no)” are 0.03 mg/L, 8 mg/L, at most 0.015 mg/L, 0.12 mg/L and at most 2 ng/mL.
